The other results are listed elsewhere or left out. Single values of this set are uncertain. Values with irradiation are relative to irradiated vehicle.
What follows are compounds tested on A549-Dual (assay: ISRE reporter (Lucia luciferase) activity, viability-corrected, relative to vehicle (fold change vs vehicle); higher = more activation of STING-IRF / NF-kB immune response reporter). Conditions: 10 µM; irradiation: 8 Gy/4 fr.

Row | SMILES | ISRE reporter
1 | Cc1cc(O)c2c(c1)C(=O)c1cc(O)cc(O)c1C2=O [Emodin] | 0.192
2 | C1CCNC1 [Pyrrolidine] | 0.809
3 | NC(=O)c1ccccc1O [Salicylamide] | 0.888
4 | COc1cc2nc(N3CCN(C(=O)c4ccco4)CC3)nc(N)c2cc1OC.Cl [Prazosin HCl] | 0.733
5 | O=[N+]([O-])c1ccc(O)cc1 [4-Nitrophenol] | 0.757
6 | Nc1ccc(S(=O)(=O)Nc2ncccn2)cc1 [Sulfadiazine] | 0.71
7 | CC1(C)SC2C(NC(=O)Cc3ccccc3)C(=O)N2C1C(=O)O.CC1(C)SC2C(NC(=O)Cc3ccccc3)C(=O)N2C1C(=O)O.c1ccc(CNCCNCc2ccccc2)cc1 (stereo not drawn) [Benzathine penicilline] | 0.64
8 | CC(C)(C(=O)c1cccnc1)c1cccnc1 [Metyrapone] | 0.788
9 | CCCCC(F)(F)C(=O)CCC1C(O)CC(=O)C1CCCCCCC(=O)O (stereo not drawn) [Lubiprostone] | 0.87
10 | Cc1nc(C(=O)NCC(=O)O)c(O)c2ccc(Oc3ccccc3)cc12 [Roxadustat (FG-4592)] | 0.418
11 | CN1CCN(CC(=O)N2c3ccccc3C(=O)Nc3cccnc32)CC1.Cl.Cl [Pirenzepine dihydrochloride] | 0.919
12 | CN(Cc1ccc(C(C)(C)C)cc1)Cc1cccc2ccccc12.Cl [Butenafine HCl] | 0.474
13 | O=CC(O)C(O)C(O)CO (stereo not drawn) [Xylose] | 0.846
14 | CCCCCCOC(=O)N=C(N)c1ccc(NCc2nc3cc(C(=O)N(CCC(=O)OCC)c4ccccn4)ccc3n2C)cc1 [Dabigatran Etexilate] | 0.832
15 | COc1cc2nc(N3CCN(C(=O)C4CCCO4)CC3)nc(N)c2cc1OC.Cl.O.O (stereo not drawn) [Terazosin HCl Dihydrate] | 1.09
16 | O=S(=O)([O-])CCCS(=O)(=O)[O-].[Na+].[Na+] [Eprodisate disodium] | 0.746
17 | COC(=O)C1=C(C)NC(C)=C(C(=O)OCCN2CCN(C(c3ccccc3)c3ccccc3)CC2)C1c1cccc([N+](=O)[O-])c1 (stereo not drawn) [Manidipine] | 0.775

Row | SMILES | ISRE reporter
18 | Cc1nnc(SCC2=C(C(=O)[O-])N3C(=O)C(NC(=O)Cn4cnnn4)C3SC2)s1.[Na+] (stereo not drawn) [Cefazolin Sodium] | 0.955
19 | CCN(CC)CCNC(C(=O)OCCC(C)C)c1ccccc1.Cl.Cl (stereo not drawn) [Camylofin Chlorhydrate] | 0.881
20 | CCCCc1ncc(/C=C(\Cc2cccs2)C(=O)O)n1Cc1ccc(C(=O)O)cc1.CS(=O)(=O)O [Eprosartan Mesylate] | 1.02
21 | O=C(O)/C=C/c1ccc(O)cc1 [p-Coumaric Acid] | 0.755
22 | COc1cc(CNC(=O)CCCC/C=C/C(C)C)ccc1O [Capsaicin(Vanilloid)] | 0.546
23 | O=C(/C=C/c1ccc(O)c2c1C(C(=O)OC(Cc1ccc(O)c(O)c1)C(=O)O)C(c1ccc(O)c(O)c1)O2)OC(Cc1ccc(O)c(O)c1)C(=O)O (stereo not drawn) [Salvianolic acid B] | 0.639
24 | CCCCCCCCCCC(=O)O [Undecanoic acid] | 0.759
25 | CC1COc2c(N3CCN(C)CC3)c(F)cc3c(=O)c(C(=O)O)cn1c23 (stereo not drawn) [Levofloxacin hydrate] | 0.838
26 | C[N+](C)(C)C[C@H](O)CC(=O)[O-] [L-carnitine] | 0.723
27 | CCCCCCCC/C=C\CCCCCCCC(=O)OC [Methyl Oleate] | 0.562
28 | CCOC(=O)C1=C(C)NC(C)=C(C(=O)OC)C1c1cccc([N+](=O)[O-])c1 (stereo not drawn) [Nitrendipine] | 0.806
29 | O=C(O)CCCCC1SCC2NC(=O)NC21 (stereo not drawn) [Biotin (Vitamin B7)] | 1.23
30 | COc1cc(NC(C)CCCN)c2ncccc2c1.O=P(O)(O)O.O=P(O)(O)O (stereo not drawn) [Primaquine Diphosphate] | 1.03
31 | O=C(NC1CCN(CCCCC2(C(=O)NCC(F)(F)F)c3ccccc3-c3ccccc32)CC1)c1ccccc1-c1ccc(C(F)(F)F)cc1 [Lomitapide] | 0.611
32 | CCN(CC)CCOCCOC(=O)C(CC)(CC)c1ccccc1.O=C(O)CC(O)(CC(=O)O)C(=O)O [Oxeladin Citrate] | 1.27
33 | COC1OC(COS(=O)(=O)[O-])C(OC2OC(C(=O)[O-])C(OC3OC(COS(=O)(=O)[O-])C(OC4OC(C(=O)[O-])C(OC5OC(COS(=O)(=O)[O-])C(O)C(O)C5NS(=O)(=O)[O-])C(O)C4O)C(OS(=O)(=O)[O-])C3NS(=O)(=O)[O-])C(O)C2OS(=O)(=O)[O-])C(O)C1NS(=O)(=O)[O-].[Na+].[Na+].[Na+].[Na+].[Na+].[Na+].[Na+].[Na+].[Na+].[Na+] (stereo not drawn) [Fondaparinux Sodium] | 0.832

— the supplement of paper PMC9174493
